Measurements published in patent US20240309004A1, “SELECTIVE CYCLIN-DEPENDENT KINASE INHIBITORS AND METHODS OF THERAPEUTIC USE THEREOF” (ViroKyne Therapeutics, LLC, priority 2021, published 2024).
Several values for one entry are separate records, joined by “and”; a condition that tells them apart may be missing. Identical values can stand only once.

Assays:
[1] = target: CDK7/cyclin H (Homo sapiens (Human), UniProt P50613); assay: Kinase activity assay, CDK7/cyclin H; assay type: biochemical; conditions: 10 μM ATP, 3-fold serial dilution starting at 10 μM, read-out: Compound IC50 CDK7/cyclin H
[2] = target: CDK9/cyclin T1 (Homo sapiens (Human), UniProt P50750); assay: Kinase activity assay, CDK9/cyclin T1; assay type: biochemical; conditions: Table 3.1.1; 10 μM ATP; 10-dose duplicate, 3-fold serial dilution starting at 10 μM; read-out: Compound IC50 CDK9/cyclin T1
[3] = Cytotoxicity concurrent with HCMV AD169 primary assay; assay type: cell-based, human; conditions: human, CC50
[4] = test system: HCMV strain AD169; assay: HCMV secondary assay (yield reduction), strain AD169, HFF cells; assay type: cell-based, Human Cytomegalovirus; conditions: Human betaherpesvirus 5, virus strain AD169, HFF cells
Protocol: (§1) Monolayers of HFF cells were prepared in 96-well plates and incubated at 37° C. for 1 d to allow the cells to reach confluency. Media was then aspirated from the wells and cells infected at a high MOI. At 1 h following infection, the inocula were removed and the monolayers rinsed with fresh media. […] Drug dilutions were added to the wells and the plates were incubated for various times, depending on the virus used and represents a single replication cycle for the virus. A duplicate set of dilutions were also performed but remained uninfected to serve as a cytotoxicity control and received equal compound exposure. Supernatants from each of the infected wells were subsequently titered using CTG in a TCID50 assay to quantify the progeny virus. For HCMV only, viral yield in the supernatants from the infected cells were titered using qPCR with HCMV primers [NT], and probe [NT].

[5] = Cytotoxicity concurrent with HCMV secondary assay; assay type: cell-based; conditions: human, HFF cells
Protocol: as §1

[6] = in vitro; assay type: cell-based; conditions: guinea pig
[7] = Cytotoxicity concurrent with Guinea pig CMV secondary assay; assay type: cell-based; conditions: GP lung cells
[8] = test system: Epstein-Barr virus Akata strain; assay: Epstein-Barr primary assay, Akata strain, Akata cells; assay type: cell-based; conditions: human gammaherpesvirus 4
[9] = Cytotoxicity concurrent with HPV11 primary assay; assay type: cell-based; conditions: human, C-33 A cell monolayers, C-33 A cells
Text: (§2) An HPV11 replicon assay was developed and expresses the essential E1 and E2 proteins from the native promoter. The E2 origin binding protein interacts with the virus origin of replication and recruits the E1 replicative helicase which unwinds the DNA and helps to recruit the cellular DNA replication machinery (including DNA polymerases, type I and type II topoisomerases, DNA ligase, single-stranded DNA binding proteins, proliferating cell nuclear antigen). The replication complex then drives the amplification of the replicon which can be assessed by the expression of a destabilized NanoLuc reporter gene carried on the replicon. In this assay, the replicon (pMP619) is transfected into C-33 A cells grown as monolayers in 384-well plates. At 48 h post transfection, the enzymatic activity of the destabilized NanoLuc reporter is assessed with NanoGlo reagent. […] . Beadle et al., 2016.

[10] = test system: Human herpes virus 6B strain Z29; assay: Human herpes virus 6B primary assay, strain Z29, MOLT-3 cells; assay type: cell-based, Human Herpesvirus 6B; conditions: Human betaherpesvirus 6B
[11] = Cytotoxicity concurrent with HHV-6B primary assay; assay type: cell-based; conditions: human
[12] = Cytotoxicity concurrent with HHV-8 primary assay; assay type: cell-based; conditions: human
[13] = Cytotoxicity concurrent with EBV primary assay; conditions: human
[14] = test system: HCMV strain GDGr K17 - resistant isolate; assay: HCMV primary assay, resistant isolate GDGr K17, HFF cells; assay type: cell-based, Human Cytomegalovirus; conditions: Human betaherpesvirus 5, HFF
Protocol: (§3) Assays were performed in monolayers as described. […] Toxicity was measured using CTG as above. […] Toxicity was measured using CTG as above.

[15] = test system: VZV strain 15-6-001 resistant isolate; assay: microbe, parasite or virus in culture; assay type: cell-based, Varicella Zoster Virus; conditions: Human alphaherpesvirus 3, HFF
Protocol: as §3
(§4) Monolayers of HFF cells were prepared in six-well plates and incubated at 37° C. for 2 d to allow the cells to reach confluency. Media was then aspirated from the wells and 0.2 mL of virus-containing solution was added to each of three wells to yield 20-30 plaques in each well. The virus was allowed to adsorb to the cells for 1 h and the plates were agitated every 15 minutes. Compounds were diluted in assay media consisting of MEM with Earl's salts supplemented with 2% FBS, glutamine, penicillin, and gentamycin. Diluted drug was added to duplicate wells and the plates were incubated for various times, depending on the virus used. For HSV-1 and -2, the monolayers were then stained with 1% crystal violet in 20% methanol and the unbound dye removed by washing with dH20. For all other assays, the cell monolayer was stained with 1% Neutral Red solution for 4-6 h then the stain was aspirated and the cells were washed with PBS.

[16] = Cytotoxicity concurrent with VZV 15-6-001 primary assay; assay type: cell-based; conditions: human
Protocol: as §3

[17] = test system: HSV1 strain DM.2 - resistant isolate; assay: HSV1 primary assay, resistant isolate DM.2, HFF cells; assay type: cell-based, Herpes Simplex Virus 1; conditions: Human alphaherpesvirus 1, HFF
Protocol: as §3, §4

[18] = in vitro; assay type: cell-based; conditions: human
Protocol: as §3

[19] = test system: Human herpes virus 8 strain BCBL-1; assay: Human herpes virus 8 primary assay, BCBL-1 cells; assay type: cell-based, Human Herpesvirus 8; conditions: Human gammaherpesvirus 8, BCBL1, strain BCBL-1, BCBL-1 cells
[20] = test system: Adenovirus Adenoid75 strain; assay: Adenovirus primary assay, Adenoid75 strain, HFF cells; assay type: cell-based; conditions: unidentified adenovirus
[21] = Cytotoxicity concurrent with Adenovirus primary assay; assay type: cell-based, human; conditions: human
[22] = test system: Adenovirus Adenoid75 strain; assay: Adenovirus secondary assay (yield reduction), Adenoid75 strain, HFF cells; assay type: cell-based; conditions: unidentified adenovirus, Adeno secondary assay
Protocol: as §1

[23] = Cytotoxicity concurrent with Adenovirus secondary assay; assay type: cell-based; conditions: human; Adeno secondary assay, HFF cells
Protocol: as §1

[24] = in vitro; conditions: human, HFF cells
[25] = test system: C-33 A cells; assay: Cytotoxicity concurrent with HPV11 primary assay; assay type: cell-based
Text: as §2

[26] = Cytotoxicity concurrent with VZV Ellen primary assay; assay type: cell-based, human; conditions: human
Protocol: as §3

[27] = test system: HSV1 strain E-377; assay: HSV1 primary assay, strain E-377, HFF cells; assay type: cell-based, Herpes Simplex Virus 1; conditions: Human alphaherpesvirus 1
Protocol: as §3, §4

[28] = Cytotoxicity concurrent with HSV1 E-377 primary assay; assay type: cell-based, human; conditions: human
Protocol: as §3

[29] = Cytotoxicity concurrent with HSV2 primary assay; assay type: cell-based, human; conditions: human
Protocol: as §3

[30] = Akata cells without virus induction

Chain of UniProt P50750 (P50750 whole entry): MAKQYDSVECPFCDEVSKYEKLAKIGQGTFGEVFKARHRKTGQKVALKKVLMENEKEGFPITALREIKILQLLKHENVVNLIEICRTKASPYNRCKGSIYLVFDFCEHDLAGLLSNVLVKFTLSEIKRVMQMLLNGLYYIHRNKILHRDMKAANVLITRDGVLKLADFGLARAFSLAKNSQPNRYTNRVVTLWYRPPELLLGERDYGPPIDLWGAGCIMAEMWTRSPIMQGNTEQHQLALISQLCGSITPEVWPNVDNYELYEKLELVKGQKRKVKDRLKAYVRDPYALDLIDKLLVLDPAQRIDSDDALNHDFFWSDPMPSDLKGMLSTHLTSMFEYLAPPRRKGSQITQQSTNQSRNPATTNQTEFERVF
Chain of UniProt P50750 (O60563 whole entry partner): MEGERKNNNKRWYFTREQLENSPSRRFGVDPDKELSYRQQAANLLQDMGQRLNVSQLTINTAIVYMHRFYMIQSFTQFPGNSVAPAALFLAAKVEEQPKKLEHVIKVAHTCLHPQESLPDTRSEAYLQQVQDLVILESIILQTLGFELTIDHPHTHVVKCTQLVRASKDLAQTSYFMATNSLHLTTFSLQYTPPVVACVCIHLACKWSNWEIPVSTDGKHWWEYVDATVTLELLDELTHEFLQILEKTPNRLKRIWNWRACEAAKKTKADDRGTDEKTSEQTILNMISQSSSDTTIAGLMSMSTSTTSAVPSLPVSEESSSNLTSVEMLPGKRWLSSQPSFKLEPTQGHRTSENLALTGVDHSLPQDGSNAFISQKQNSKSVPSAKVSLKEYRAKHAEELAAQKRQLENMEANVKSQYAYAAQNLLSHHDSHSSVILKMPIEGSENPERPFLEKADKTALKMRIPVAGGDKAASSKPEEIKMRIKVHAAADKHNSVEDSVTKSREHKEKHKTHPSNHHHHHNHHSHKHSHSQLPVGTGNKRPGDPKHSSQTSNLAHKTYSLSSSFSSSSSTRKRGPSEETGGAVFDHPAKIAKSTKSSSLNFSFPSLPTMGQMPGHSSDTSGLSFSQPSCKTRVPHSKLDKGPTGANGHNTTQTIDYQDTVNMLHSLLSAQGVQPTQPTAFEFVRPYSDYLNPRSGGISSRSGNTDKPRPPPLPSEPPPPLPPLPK
Chain of UniProt P50613 (P50613 whole entry): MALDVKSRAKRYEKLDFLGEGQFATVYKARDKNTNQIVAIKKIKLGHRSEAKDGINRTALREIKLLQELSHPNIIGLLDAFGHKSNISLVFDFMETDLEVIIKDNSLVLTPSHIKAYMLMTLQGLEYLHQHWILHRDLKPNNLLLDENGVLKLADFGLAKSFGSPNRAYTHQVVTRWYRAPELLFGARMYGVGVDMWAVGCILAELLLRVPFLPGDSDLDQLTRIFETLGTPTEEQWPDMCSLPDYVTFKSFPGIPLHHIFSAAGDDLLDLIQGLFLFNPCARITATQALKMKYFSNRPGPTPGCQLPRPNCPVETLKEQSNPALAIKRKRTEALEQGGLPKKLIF
Chain of UniProt P50613 (P51946 whole entry partner): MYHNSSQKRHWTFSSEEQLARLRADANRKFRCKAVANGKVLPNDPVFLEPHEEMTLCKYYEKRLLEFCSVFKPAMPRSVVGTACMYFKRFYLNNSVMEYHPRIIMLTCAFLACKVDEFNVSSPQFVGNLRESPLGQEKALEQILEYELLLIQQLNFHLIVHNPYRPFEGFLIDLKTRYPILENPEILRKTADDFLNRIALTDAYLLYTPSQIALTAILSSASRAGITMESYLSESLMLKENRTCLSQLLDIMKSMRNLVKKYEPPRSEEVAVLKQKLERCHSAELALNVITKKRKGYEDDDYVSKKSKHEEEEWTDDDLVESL

CN(C)C1CCC(Nc2cc3c4ccc(F)cc4nn3cn2)CC1 (stereo not drawn) [VKT-007]
IC50 [1]: > 10 µM | IC50 [2]: 0.11 µM and 0.152 µM | CC50 [3]: 23.1 µM | EC90 [4]: 9.91 µM | CC50 ([5]; uninfected HFF cell monolayers): 23.7 µM | CC50 at 7 d [6]: 18.5 µM | CC50 [7]: 34.2 µM | EC50 [8]: 1.3 µM | EC90 [8]: 5.5 µM | CC50 [9]: 49.9 µM | EC50 [10]: 5.32 µM | EC90 [10]: 9.88 µM | CC50 at 7 d ([11]; Molt-3 cells without virus addition): 27.9 µM | CC50 ([12]; BCBL-1 cells without virus induction): 31.4 µM | CC50 at 72 h [13, 30]: 20.3 µM

Nc1ccn(C[C@@H](CO)OCP(=O)(O)O)c(=O)n1 [Cidofovir, reference compound]
EC50 [14]: 0.21 µM | EC90 [14]: 2.99 µM | EC90 [4]: 0.75 µM | CC50 [5]: 20 µM | CC50 at 7 d [6]: 150 µM | CC50 [7]: 100 µM | EC90 [15]: 30 µM | CC50 [16]: 115 µM | EC50 [17]: 1.07 µM | EC90 [17]: 150 µM | CC50 [18]: 150 µM | EC50 [8]: 3.31 µM | EC90 [8]: 74.2 µM | EC50 [10]: 8.45 µM | EC90 [10]: 27.7 µM | CC50 at 7 d ([11]; MOLT-3 cells): 100 µM | EC50 [19]: 3.22 µM | EC90 [19]: 15.8 µM | CC50 ([12]; BCBL-1 cells): 100 µM | EC50 [20]: 4.91 µM | EC90 [20]: 150 µM | CC50 [21]: 150 µM | EC90 [22]: 3.27 µM | CC50 [23]: 100 µM | CC50 [24]: 139 µM | CC50 at 72 h ([13]; Akata cells): 100 µM

Nc1nc2c(ncn2CCOCP(=O)(O)O)c(=O)[nH]1 [9-[2-phosohono-methoxy)ethyl]guanine, reference compound]
CC50 [25]: 39.4 µM

Fc1ccc2c(c1)nn1cnc(NC3CCCOC3)cc21 (stereo not drawn) [VKT-019]
CC50 [3]: 32 µM | CC50 [26]: 28.4 µM | EC50 [27]: 0.02 µM | CC50 [28]: 41.9 µM | CC50 [18]: 48.5 µM | CC50 [29]: 38.1 µM | EC50 [20]: 6.02 µM | CC50 [21]: 29.9 µM | CC50 at 72 h [13, 30]: 42.3 µM
